Laboratory results taken from EPA's CvTdb concentration-time database.
This continues a long series; more values of the same kind are listed elsewhere.

How the values were obtained:
Rat [1] = assay: concentration in plasma after dosing; conditions: 5 min; dosed: 2-Methyltetrahydrofuran; 100 mg/kg; oral; Female; Harlan Sprague Dawley
Rat [2] = assay: concentration in plasma after dosing; conditions: 0.5 h; dosed: 2-Methyltetrahydrofuran; 10 mg/kg; oral; Female; F344
Rat [3] = assay: concentration in brain after dosing; conditions: 1.5 h; dosed: 2-Methyltetrahydrofuran; 30 mg/kg; oral; Male; F344
Rat [4] = assay: concentration in plasma after dosing; conditions: 2 min; dosed: 2-Methyltetrahydrofuran; 30 mg/kg; oral; Male; F344
Rat [5] = assay: concentration in brain after dosing; conditions: 2 h; dosed: 2-Methyltetrahydrofuran; 10 mg/kg; oral; Male; F344
Rat [6] = assay: concentration in plasma after dosing; conditions: 4 min; dosed: 2-Methyltetrahydrofuran; 10 mg/kg; oral; Male; F344
Rat [7] = assay: concentration in brain after dosing; conditions: 0.25 h; dosed: 2-Methyltetrahydrofuran; 10 mg/kg; oral; Male; F344
Rat [8] = assay: concentration in brain after dosing; conditions: 1.5 h; dosed: 2-Methyltetrahydrofuran; 400 mg/kg; oral; Female; Harlan Sprague Dawley
Rat [9] = assay: concentration in plasma after dosing; conditions: 0.75 h; dosed: 2-Methyltetrahydrofuran; 400 mg/kg; oral; Male; F344
Rat [10] = assay: concentration in plasma after dosing; conditions: 0.25 h; dosed: 2-Methyltetrahydrofuran; 30 mg/kg; oral; Female; F344
Rat [11] = assay: concentration in plasma after dosing; conditions: 10 min; dosed: 2-Methyltetrahydrofuran; 10 mg/kg; oral; Female; F344
Rat [12] = assay: concentration in plasma after dosing; conditions: 0.5 h; dosed: 2-Methyltetrahydrofuran; 10 mg/kg; iv; Male; F344
Rat [13] = assay: concentration in plasma after dosing; conditions: 12 h; dosed: 2-Methyltetrahydrofuran; 400 mg/kg; oral; Female; F344
Rat [14] = assay: concentration in plasma after dosing; conditions: 2.5 h; dosed: 2-Methyltetrahydrofuran; 10 mg/kg; oral; Male; F344
Rat [15] = assay: concentration in brain after dosing; conditions: 4 min; dosed: 2-Methyltetrahydrofuran; 30 mg/kg; oral; Female; F344
Rat [16] = assay: concentration in plasma after dosing; conditions: 2 min; dosed: 2-Methyltetrahydrofuran; 10 mg/kg; oral; Female; F344
Rat [17] = assay: concentration in brain after dosing; conditions: 1.5 h; dosed: 2-Methyltetrahydrofuran; 100 mg/kg; oral; Female; Harlan Sprague Dawley
Rat [18] = assay: concentration in plasma after dosing; conditions: 0.75 h; dosed: 2-Methyltetrahydrofuran; 400 mg/kg; oral; Female; Harlan Sprague Dawley
Rat [19] = assay: concentration in brain after dosing; conditions: 2.5 h; dosed: 2-Methyltetrahydrofuran; 10 mg/kg; oral; Female; F344
Rat [20] = assay: concentration in brain after dosing; conditions: 1 h; dosed: 2-Methyltetrahydrofuran; 10 mg/kg; iv; Male; F344
Rat [21] = assay: concentration in plasma after dosing; conditions: 2 min; dosed: 2-Methyltetrahydrofuran; 30 mg/kg; oral; Female; F344
Rat [22] = assay: concentration in plasma after dosing; conditions: 0.75 h; dosed: Bromochloroacetic acid; 100 mg/kg; oral; Female; F344
Rat [23] = assay: concentration in plasma after dosing; conditions: 40 min; dosed: Bromochloroacetic acid; 10 mg/kg; iv; Male; F344
Rat [24] = assay: concentration in plasma after dosing; conditions: 5 min; dosed: Bromochloroacetic acid; 10 mg/kg; iv; Male; F344
Rat [25] = assay: concentration in plasma after dosing; conditions: dosed: Fluorotelomer alcohol 8+2, 48 mg/kg, oral, Male, Harlan Sprague Dawley
Rat [26] = assay: concentration in plasma after dosing; conditions: dosed: Fluorotelomer alcohol 8+2, 160 mg/kg, oral, Female, Harlan Sprague Dawley
Rat [27] = assay: concentration in plasma after dosing; conditions: dosed: Formamide, 300 mg/kg, oral, Female, Harlan Sprague Dawley
Rat [28] = assay: concentration in plasma after dosing; conditions: dosed: Formamide, 36 mg/kg, oral, Female, Harlan Sprague Dawley
Rat [29] = assay: concentration in plasma after dosing; conditions: 5 h; dosed: Formamide; 90 mg/kg; iv; Male; Harlan Sprague Dawley
Rat [30] = assay: concentration in plasma after dosing; conditions: dosed: Formamide, 36 mg/kg, oral, Male, Harlan Sprague Dawley
Rat [31] = assay: concentration in plasma after dosing; conditions: dosed: Formamide, 600 mg/kg, oral, Female, Harlan Sprague Dawley
Rat [32] = assay: concentration in plasma after dosing; conditions: dosed: Formamide, 300 mg/kg, oral, Female, Harlan Sprague Dawley; remark: listed apart in the source
Rat [33] = assay: concentration in plasma after dosing; conditions: dosed: Formamide, 90 mg/kg, iv, Male, Harlan Sprague Dawley
Rat [34] = assay: concentration in plasma after dosing; conditions: 2 min; dosed: Pyridine; 200 mg/kg; oral; Female; F344
Rat [35] = assay: concentration in plasma after dosing; conditions: 20 min; dosed: Pyridine; 200 mg/kg; oral; Female; Harlan Sprague Dawley
Rat [36] = assay: concentration in plasma after dosing; conditions: 1 h; dosed: Pyridine; 200 mg/kg; oral; Female; Harlan Sprague Dawley
Rat [37] = assay: concentration in plasma after dosing; conditions: 1 h; dosed: Pyridine; 200 mg/kg; oral; Female; F344

CC1CCCO1 (stereo not given) [2-Methyltetrahydrofuran]
Conditions	concentration in brain [µg/g]	concentration in plasma [ng/mL]
Rat [1]	–	40200
Rat [2]	–	2380
Rat [3]	5.5	–
Rat [4]	–	1400
Rat [5]	0.0825	–
Rat [6]	–	2570
Rat [7]	4.11	–
Rat [8]	94.1	–
Rat [9]	–	214000
Rat [10]	–	22700
Rat [11]	–	2150
Rat [12]	–	4860
Rat [13]	–	14000
Rat [14]	–	68
Rat [15]	6.46	–
Rat [16]	–	2690
Rat [17]	59.4	–
Rat [18]	–	165000
Rat [19]	0.0238	–
Rat [20]	1.71	–
Rat [21]	–	7610

O=C(O)C(Cl)Br (stereo not given) [Bromochloroacetic acid]
Conditions	concentration in plasma [ng/mL]
Rat [22]	62200
Rat [23]	133
Rat [24]	13700

OCCC(F)(F)C(F)(F)C(F)(F)C(F)(F)C(F)(F)C(F)(F)C(F)(F)C(F)(F)F [Fluorotelomer alcohol 8+2]
concentration in plasma [ng/mL]
Conditions	0.25 h	1 h	6 h	24 h
Rat [25]	86	–	150	–
Rat [26]	–	1800	–	231

NC=O [Formamide]
Conditions	concentration in plasma [ng/mL]
Rat [27], 0.5 h	175000
Rat [27], 48 h	63400
Rat [28], 1 h	50700
Rat [28], 72 h	2200
Rat [30], 0.5 h	30300
Rat [30], 48 h	6600
Rat [31], 10 min	327000
Rat [31], 20 h	383000
Rat [32], 0.25 h	137000
Rat [32], 5 h	267000
Rat [33], 1 h	156000
Rat [33], 3 h	156000

Conditions	concentration in plasma [ng/mL]
Rat [29]	112000

c1ccncc1 [Pyridine]
Conditions	concentration in plasma [ng/mL]
Rat [34]	34300
Rat [35]	106000
Rat [36]	97000
Rat [37]	84800
